Source: PubChem BioAssay (NCATS)
The shares of active, inactive and inconclusive entries below differ from those in the screen. Potencies beside an inconclusive call are fits to weak or partial responses and may not hold up. Activity calls are given as the source filed them. Calls come from the whole dose curve; as a rule, active = well fitted cell-killing curve with a large enough effect; inconclusive = small, poorly fitted or top-dose-only effect, or effect the other way; inactive = no such curve, though single readings can be large or run the other way.

assay: Viability qHTS for spleen associated tyrosine kinase inhibitor (SYKi) naive MV4-11 cells (AID 1963823); settings: MV4-11 AML viability, CellTiter-Glo luminescence, 72 h; viability (% of control): at 45 µM (top of the series); note: nearly all actives have a fitted effect of over 40% in size
Outline: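 Seeding of 500 SYKi-naive MV4-11 cells per well onto pre-dispensed compounds preceded a 72 hr incubation at 37 C. Luminescent CellTiter-Glo signal, read after 10 min at room temperature, reflected viable cells.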
Potency is the fitted concentration of half-maximal effect; tags give direction and shape of the fitted curve.

| Structure (SMILES) | Potency | viability (% of control) |
| --- | --- | --- |
| COc1ccc2c(c1O)OC(C)(C)c1c-2ccc2c1C(=O)N(c1ccc(C(=O)c3ccccc3)cc1)C2=O | inconclusive: 2060 nM [cytotoxic, full curve] |  |
| NS(=O)(=O)c1ccc(NC(=O)CCC(=O)O)cc1 | inactive |  |
| C=C1CCC2C(C)(C)CC(=O)CC2(C)C1CCC(C)CCOC(C)=O (configuration not stated) | inconclusive: 11400 nM [cytotoxic, partial curve, poor fit] |  |
| CC(C)C(C)C(O)C1CC23CC(=O)C4(O)C(=C2CCC3C1C)C=CC1(O)CC(O)CCC14C (configuration not stated) | inactive |  |
| COc1cc2c(cc1O)C1(OC)Cc3ccc4c(c3C1N(C)CC2)OCO4 (configuration not stated) | inconclusive: 5080 nM [cytotoxic, partial curve, poor fit] |  |
| CCN(CC)Cc1ccc(C(=O)N(CCc2ccccc2OC)[C@@H]2CCNC2)cc1 | active: 3170 nM |  |
| COC(=O)CC(O)C1OC(c2ccccc2)C(O)C1O (configuration not stated) | inconclusive: 4.6 nM [rising, full curve] |  |
| COC(=O)C1=COC(O[C@@H]2O[C@H](CO)[C@@H](O)[C@H](O)[C@H]2O)C2C(C)C(=O)CC12 (some centres not stated) | inactive |  |
| CC1=CC(=O)CC(C)(C)[C@H]1/C=C/C(CO)O[C@@H]1O[C@H](CO)[C@@H](O)[C@H](O)[C@H]1O (some centres not stated) | inactive |  |
| NC1CCC(Nc2cc(-c3cccc(NCc4cccc(F)c4)n3)c(Cl)cn2)CC1 (configuration not stated) | active: 146 nM |  |
| Cc1ccc(-n2nc(C(C)(C)C)cc2NC(=O)Nc2cc(COc3cccnc3)[nH]n2)cc1 | inconclusive: 82 nM [cytotoxic, full curve] |  |
| CC1(C)CC[C@]2(C(=O)OC3OC(CO)C(O)C(O)C3O)CC[C@]3(C)C(=CCC4[C@@]5(C)C[C@@H](O)[C@H](OC6OC(C(=O)O)C(O)C(O)C6O)C(C)(C)C5CC[C@]43C)[C@@H]2C1 (some centres not stated) |  | inactive: 76.2% [at 9.25 µM] |
| CNC(=O)c1ccccc1Nc1cc(Nc2ccc(N3CCOCC3)cc2OC)ncc1C(F)(F)F | inconclusive: 206 nM [cytotoxic, full curve] |  |
| Cc1c(C(=O)Nc2ccc(N3CC(C)OC(C)C3)nc2)cccc1-c1ccc(OC(F)(F)F)cc1 (configuration not stated) | inconclusive: 5800 nM [cytotoxic, partial curve] |  |
| C/C=C/C=C/C=C/C(=O)N(C)C(C(=O)NC(C)C(=O)N1CCCC1C(N)=O)C(C)C (configuration not stated) | inactive |  |
| Cc1cc(Nc2ncc3cc(-c4c(Cl)cccc4Cl)c(=O)n(C)c3n2)ccc1F | active: 461 nM |  |
| Clc1ccc2ncc(-c3cccc(NC4CCNC4)n3)n2c1 (configuration not stated) | inconclusive: 9.2 nM [cytotoxic, full curve] |  |
| Oc1cccc(Nc2ccnc3cc(-c4cccc(CN5CCOCC5)c4)sc23)c1 | active: 291 nM |  |
| COC(=O)CC1CC(c2ccc(O)cc2)=NO1 (configuration not stated) | inactive |  |
| CN1CCN(C2=Nc3ccccc3Nc3ccc(Cl)cc32)CC1 | inconclusive: 9200 nM [cytotoxic, partial curve, poor fit] |  |
| CO[C@H]1/C=C\O[C@@]2(C)Oc3c(C)c(O)c4c(O)c(c(/C=N\N5CCN(C6CCCC6)CC5)c(O)c4c3C2=O)NC(=O)/C(C)=C\C=C/[C@H](C)[C@H](O)[C@@H](C)[C@@H](O)[C@@H](C)[C@H](OC(C)=O)[C@@H]1C | inconclusive: 7960 nM [cytotoxic, single point] |  |
| O=C1O[C@H](CO)[C@@H](O)[C@H](O)[C@H]1O | inactive |  |
| COc1ccc(Cl)cc1-c1cc(=O)[nH]c(=S)n1CC(N)=O | inconclusive: 23.5 nM [rising, full curve, poor fit] |  |
| CC(C)(C)c1ccc(O)c(O)c1 | active: 9690 nM |  |
| C=C1C(O)C(O)C2(CC3C(C)=CCC4C(C)(CO)CCCC34C)OC2C1O (configuration not stated) | inconclusive: 2860 nM [rising, single point] |  |
| CC(C)=CCC[C@](C)(O[C@@H]1O[C@H](CO[C@@H]2OC[C@H](O)[C@H](O)[C@H]2O)[C@@H](O)[C@H](O)[C@H]1O)[C@H]1CC[C@]2(C)[C@@H]1[C@H](O)C[C@@H]1[C@@]3(C)CC[C@H](O[C@@H]4O[C@H](CO)[C@@H](O)[C@H](O)[C@H]4O[C@@H]4O[C@H](CO)[C@@H](O)[C@H](O)[C@H]4O)C(C)(C)[C@@H]3CC[C@]12C | inactive |  |
| O=C(C1=CCN2c3c(cccc31)OC[C@H]2CN1CCOCC1)c1cccc2ccccc12 | active: 14600 nM |  |
